PubChem BioAssay AID1963576 (National Center for Advancing Translational Sciences (NCATS), 2024)
Hit rate of the full screen: of about 46,000 compounds, about 60 (0.1%) were called active. Not shown: some 3% with an inconclusive outcome. Calls come from the whole dose curve; as a rule, active = well fitted inhibition curve with a large enough effect; inconclusive = small, poorly fitted or top-dose-only effect; inactive = no such curve, though single readings can be large or run the other way. The list shows a part of the results.

assay: Primary qHTS assay for Inhibitors of ovarian cancer metastasis using an organotypic tumor microenvironment (TME) model.; note: nearly all actives have a fitted effect of over 65% in size;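 for activity change, negative = inhibition: plate controls were DMSO wells for no effect and tomatine positive control wells for full effect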; details: SKOV3ip1-GFP adhesion/invasion on 3D omental model, fluorescence; series mostly up to 45.8 µM; activity change, negative = inhibition: at the top concentration
Procedure, shortened: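 qHTS, 4-pt dose (0.36-46 umol/L); SKOV3ip1-GFP, 1,200 cells/well, no FBS; primary omental fibroblast/mesothelial co-culture 48 h pre-grown; 2 h RT + 16 h 37 C; PBS wash, 4% PFA; GFP count 488/509 nm.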

SMILES | activity change, negative = inhibition | outcome
Cc1ccc(-c2nn(CC(=O)Nc3cccc(C(F)(F)F)c3)c(=O)c3ccccc23)cc1 | inactive: 3.7% | –
Cc1oc(C)c2c(=O)cc(-c3ccc4c(c3)OCO4)cc(OC(=O)c3ccc(Cl)cc3)c12 | inactive: -0.177% | –
Cc1ccc(-c2nc3ccccc3[nH]2)cc1NC(=O)COc1cccc(C)c1C | inactive: -3.2% | –
Cc1ccc(-c2nonc2NC(=O)c2ccco2)cc1C | inactive: 3.93% | –
COc1cc(CNc2ccc3[nH]c(=O)[nH]c3c2)cc(Cl)c1OCc1ccccc1F | inactive: -25.3% | –
O=C(C=CC#Cc1cccc(NS(=O)(=O)c2ccccc2)c1)NO | inactive: -9.7% | –
COc1ccc(C)cc1NC(=O)CCn1nc(C)cc1C | inactive: 1.77% | –
CCC(Sc1nc2ccccc2c2nc(CCc3c(C)n[nH]c3C)nn12)C(=O)Nc1ccccc1F (configuration not stated) | inactive: 8.16% | –
COc1ccccc1Cn1c(CNS(=O)(=O)c2cccc([N+](=O)[O-])c2)nc2cccnc21 | – | inactive
Cc1cccc(-c2[nH]ncc2-c2ccc3ncccc3n2)n1 | inactive: -6.28% | –
Cc1cccc(C)c1NC(=O)CSCc1cnn(-c2ccccc2)c1-n1cccc1 | – | inactive
COC(=O)c1ccc(NC(=O)CSc2n[nH]c(CC(C)C)n2)cc1 | inactive: -6.22% | –
Cc1ccc(NC(=O)Cn2c(=O)c(CNc3ccccc3)cc3cc4c(cc32)OCCO4)cc1 | inactive: 0.841% | –
CCN(CC)C(=O)C1=C(C)Nc2nc3ccccc3n2C1c1cccc(Cl)c1 (configuration not stated) | – | inactive
COc1ccc(CNC(=O)c2cc3cccc(OC)c3oc2=O)cc1 | inactive: 32.8% | –
O=C(NCc1ccco1)c1ccc2c(c1)N(Cc1ccccc1F)C(=O)c1ccccc1S2=O (configuration not stated) | – | inactive
COc1ccc(NC(=O)CSC2=Nc3ccccc3C3=NC(CCC(=O)NCCc4ccccc4)C(=O)N23)c(OC)c1 (configuration not stated) | inactive: 2.82% | –
COc1cccc(CNC(=O)c2nn(C)c3c2CS(=O)(=O)c2ccccc2-3)c1 | inactive: 2.69% | –
CCn1cc(C(=O)N2CCN(c3ccc(OC)cc3)CC2)c(=O)c2cc(S(=O)(=O)N(C)C3CCCCC3)ccc21 | – | inactive
CC(C)CN(CCCNC(=O)c1cn(C)c2ccc(S(=O)(=O)N(C)C3CCCCC3)cc2c1=O)CC(C)C | inactive: 1.29% | –
COc1cccc(NC(=O)C(CCSC)NC(=O)C2CCC(C)CC2)c1 (configuration not stated) | inactive: -2.76% | –
COc1ccc(CNC(=O)c2cc(C)nc3c2c(C)nn3-c2cccc(Cl)c2C)cc1 | inactive: -4.11% | –
Cc1cccc(OC(=O)c2cc(-c3ccc(Cl)cc3)on2)c1C | inactive: 1.27% | –
CCOc1ccc(C2=CC(c3cc(Br)ccc3F)n3ncnc3N2)cc1Cl (configuration not stated) | inactive: 2.96% | –

SMILES | activity change, negative = inhibition | outcome
CCOc1ccc(S(=O)(=O)N(C(=O)c2ccncc2)c2ccc3oc(C)c(C(=O)OC)c3c2)cc1 | – | inactive
CC[C@@]1(O)C[C@H](O[C@H]2C[C@H](N(C)C)[C@H](O[C@H]3C[C@H](O)[C@H](O[C@H]4CCC(=O)[C@H](C)O4)[C@H](C)O3)[C@H](C)O2)c2c(cc3c(c2O)C(=O)c2c(O)cccc2C3=O)[C@@H]1C(=O)OC | inactive: 5.82% | –
COc1ccc(C)cc1NC(=O)CC(=O)Nc1ccc2nc3n(c(=O)c2c1)CCCCC3 | – | inactive
O=C(NCCc1csc(-c2ccc(F)cc2)n1)c1c(F)cccc1Cl | inactive: -4.28% | –
O=C(COC(=O)c1cc(-c2ccccc2)nc2c(Cl)cccc12)c1ccc(F)cc1 | inactive: -6.51% | –
CN(C(=O)CSc1nc2ccccc2n1Cc1cccc(C(F)(F)F)c1)c1ccccc1 | inactive: -7.38% | –
CCOc1ccc(-n2c(=O)c3c(C)c(C)sc3n(Cc3cc(=O)n4cc(Cl)ccc4n3)c2=O)cc1 | inactive: -2.54% | –
CC(C)CSc1oc(-c2ccco2)nc1S(=O)(=O)c1ccc(Br)cc1 | inactive: -1.03% | –
Cc1nn(CC(=O)Nc2cccc(C(F)(F)F)c2)c(=O)c2nn(-c3ccccc3)c(C)c12 | inactive: -3.57% | –
COc1ccccc1CN1CCN(C2CCN(C(=O)NC(C)C)CC2)C(=O)C1=O | inactive: -4.28% | –
CN(C)CCOc1cc(-c2cn[nH]c2)ccc1NC(=O)C1COc2ccccc2O1 (configuration not stated) | inactive: 16.6% | –
COc1ccc(Nc2ncc3c(n2)CCN(C(=O)OC(C)(C)C)C3)cc1 | inactive: 16.9% | –
Cc1ccc(NC(=O)c2ccc3[nH]c(C)cc(=O)c3c2)c(C)c1 | inactive: -1.12% | –
Cc1ccc(NC(=O)Cc2coc3c(C)c(C)ccc23)cc1Cl | inactive: -21.5% | –
Cc1ccc(Nc2cc(C(=O)NCc3cccs3)c3ccccc3n2)c(C)c1 | inactive: 11.3% | –
Cc1ccc(CCNC(=O)c2cc(-c3ccc(Cl)cc3)n[nH]2)cc1 | inactive: -14.6% | –
CCOc1ccccc1C(=O)N(Cc1cccs1)c1ccc(Cl)cc1 | inactive: -6.56% | –
COc1cc2ccccc2cc1C(=O)Nc1ccc2oc(-c3ccccc3)nc2c1 | inactive: -22.9% | –
Cc1ccccc1CNC(=O)CCC(=O)N1CC2CCCN2c2ccccc21 (configuration not stated) | inactive: -1.71% | –
Cc1cc(O)c(-c2ccnc3cc(-c4ccccc4)nn23)cc1Cl | inactive: 6.28% | –
CCc1ccc2c(c1)-c1ccccc1S(=O)(=O)N2CC(=O)N1CCC(C)CC1 | inactive: -1.55% | –
COc1cccc(Cn2c(CNS(=O)(=O)c3ccc4c(c3)CCCC4)nc3cccnc32)c1 | – | inactive
CC(=O)c1ccc(NC(=O)Cn2ncc3c(C)n(Cc4ccc(F)cc4)c(C)c3c2=O)cc1 | – | inactive
